Laboratory results published in patent US6235514A, “Nucleic acid molecules encoding isopentenyl monophosphate kinase, and methods of use” (Washington State University Research Foundation, priority 1999, dated 2001).
At least one structure is not confirmed: it was looked up by name or label, or the drawing left a doubt. Some entries repeat one wording, which the source may state once for all of them.

Columns and labels:
Assay type in all cases: biochemical
[1] = biological target: E. coli IP kinase (ychB, SEQ ID NO:6), partially purified (Escherichia coli, UniProt P62615); test: Kinase assay, partially purified recombinant E. coli IP kinase; conditions: for Phosphorylating activity with substrate, in words, partially purified E. coli kinase: partially purified protein; for Rate (kinase activity with substrate), E. coli (partially purified): Ni2+ affinity-purified enzyme, averages with standard deviation
[2] = system: E. coli background (repressed, 0.02% glucose); test: Kinase assay, E. coli background (repressed) controls; conditions: crude extract, transgene repressed with 0.02% glucose; rates are minimums
[3] = biological target: E. coli IP kinase (ychB, SEQ ID NO:6) (Escherichia coli, UniProt P62615); test: Kinase assay, recombinant E. coli IP kinase (induced), crude extracts; conditions: crude extract, induced with 0.02% arabinose; rates are minimums
Chain of E. coli IP kinase (ychB, SEQ ID NO:6) (P62615 whole entry): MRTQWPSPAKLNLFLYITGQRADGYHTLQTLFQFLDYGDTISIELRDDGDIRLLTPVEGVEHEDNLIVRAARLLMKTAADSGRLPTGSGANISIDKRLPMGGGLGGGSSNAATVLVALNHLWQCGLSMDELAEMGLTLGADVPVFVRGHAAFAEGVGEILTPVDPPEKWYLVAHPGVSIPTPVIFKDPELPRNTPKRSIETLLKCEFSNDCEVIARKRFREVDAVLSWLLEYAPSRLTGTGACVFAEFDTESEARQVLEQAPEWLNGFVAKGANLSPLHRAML

Chain of E. coli IP kinase (ychB, SEQ ID NO:6), partially purified (P62615 whole entry): as above

Structure (SMILES)	Phosphorylating activity with substrate, in words, partially purified E. coli kinase [1]	Rate (kinase activity with substrate), E. coli (repressed) [2] [pmol/s · g protein]	Rate (kinase activity with substrate), E. coli (induced) [3] [pmol/s · g protein]	Rate (kinase activity with substrate), E. coli (partially purified) [1] [pmol/s · g protein]
CC(O)(CCO)CC(=O)O (racemic) [MVA, mevalonate]	no phosphorylating activity was detectable			
CC(C)=CCOP(=O)(O)O [DMAP, dimethylallyl monophosphate]	no phosphorylating activity was detectable			
CC(=O)[C@@H](O)[C@H](O)CO [DX, deoxyxylulose]	no phosphorylating activity was detectable	< 0.1	< 0.1	
CC(=O)[C@@H](O)[C@H](O)COP(=O)(O)O [DXP, deoxyxylulose-5-phosphate]	no phosphorylating activity was detectable	< 0.1	< 0.1	
C=C(C)CCOP(=O)(O)O [IP, isopentenyl monophosphate]	readily catalyzed the conversion		2.41	178 ± 81
C=C(C)CCO [ISO, isopentenol]	readily catalyzed the conversion	0.08	0.10	79 ± 24
